Among all 310,000 compounds or so, about 2,200 (0.71%) showed an effect of 50% or more. The effect is printed as a negative number. Some of the results follow.

The source of these data is paper PMC4336329 (PLoS ONE, 2015).

In the assay the target is human ether-à-go-go-related gene (hERG) potassium channel (human, UniProt Q12809). Kind of assay: primary screen, population patch clamp on CHO cells stably expressing hERG.
Sequence of human ether-à-go-go-related gene (hERG) potassium channel (Q12809 whole entry, looked up): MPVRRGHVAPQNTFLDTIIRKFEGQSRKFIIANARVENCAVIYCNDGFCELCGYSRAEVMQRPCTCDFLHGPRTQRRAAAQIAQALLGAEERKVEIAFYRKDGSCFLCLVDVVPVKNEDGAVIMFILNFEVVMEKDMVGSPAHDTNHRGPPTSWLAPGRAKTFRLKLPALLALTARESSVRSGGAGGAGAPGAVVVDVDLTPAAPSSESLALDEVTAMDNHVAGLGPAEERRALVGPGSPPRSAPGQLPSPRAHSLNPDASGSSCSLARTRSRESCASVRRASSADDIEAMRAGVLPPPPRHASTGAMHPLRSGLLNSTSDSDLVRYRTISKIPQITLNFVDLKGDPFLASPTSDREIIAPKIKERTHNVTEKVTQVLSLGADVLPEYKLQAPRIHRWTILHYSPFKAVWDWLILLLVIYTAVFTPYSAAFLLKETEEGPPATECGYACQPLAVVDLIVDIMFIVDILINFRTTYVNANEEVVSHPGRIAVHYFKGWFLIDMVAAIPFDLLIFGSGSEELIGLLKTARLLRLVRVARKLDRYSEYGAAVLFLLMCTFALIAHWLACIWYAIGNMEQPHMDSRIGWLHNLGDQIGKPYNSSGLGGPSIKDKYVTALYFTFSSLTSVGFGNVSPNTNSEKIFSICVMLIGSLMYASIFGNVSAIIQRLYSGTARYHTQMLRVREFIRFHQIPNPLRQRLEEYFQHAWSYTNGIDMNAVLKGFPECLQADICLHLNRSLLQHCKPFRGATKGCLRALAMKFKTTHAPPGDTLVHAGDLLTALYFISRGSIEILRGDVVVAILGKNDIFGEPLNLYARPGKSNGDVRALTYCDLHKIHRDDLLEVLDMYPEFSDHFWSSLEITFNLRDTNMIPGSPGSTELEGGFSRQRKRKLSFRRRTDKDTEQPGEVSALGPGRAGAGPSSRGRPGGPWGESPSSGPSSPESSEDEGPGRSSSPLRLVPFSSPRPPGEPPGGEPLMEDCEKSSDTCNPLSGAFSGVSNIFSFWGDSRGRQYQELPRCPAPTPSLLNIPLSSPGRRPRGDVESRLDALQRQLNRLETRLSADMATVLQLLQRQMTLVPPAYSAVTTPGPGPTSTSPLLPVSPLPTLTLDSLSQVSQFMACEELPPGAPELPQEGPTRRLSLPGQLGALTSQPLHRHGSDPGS
For `Cc1ccccc1NC(=S)N(CCN1CCOCC1)Cc1ccccc1F`, the “hERG current change (%, negative = inhibition) at 1uM” value came out at 18.7%.
The same measure for `Cc1ccnc(NS(=O)(=O)c2ccc(N3C(=O)Nc4ccccc4N3O)cc2)c1`: 12.4%; for `O=C(Oc1ccc(C(=S)N2CCCCC2)cc1)c1ccccc1`: 7.88%; for `Cn1c(CNC(=O)CNC(=O)c2ccccc2F)cc(=O)n(C)c1=O`: 25.2%.
In the case of `CCn1c(SCC(=O)N/N=C/c2ccccc2OCC(=O)O)nnc1-c1ccccc1` it was 6.93%.
As to `COc1ccccc1NC(=O)N1CCN(c2ccccn2)CC1`, the “hERG current change (%, negative = inhibition) at 1uM” value stood at 9.96%.
The same measure for `Cn1c(=O)oc2ccc(C(=O)CSc3nnnn3-c3ccccc3)cc21`: 9.68%.
`Cc1cc(Nc2ccccc2)cc(=O)n1C`: the “hERG current change (%, negative = inhibition) at 1uM” value is on record as 14.4%.
In the case of `COc1cc(NC(=S)NCc2ccc(S(N)(=O)=O)cc2)cc(OC)c1` it was 9.63%.
The same measure for `CCN(CC(=O)Nc1ccc(OC)cc1)C(=O)CSCc1ccc(C)cc1`: 4.28%; for `CCOC(=O)c1cccc(NC(=O)c2cccs2)c1`: 3.48%; for `Cc1ccc(OCCC(=O)OCC(=O)N2c3ccccc3CC2C)cc1` (stereo not shown): 16.5%.
In the case of `Cc1ccc(C(=O)N(Cc2ccccc2)C(C)(C)C)cc1C` it was 8.61%.
Take `O=C(Nc1ccccc1C(=O)NCc1cccnc1)c1ccc(Cl)cc1Cl`: the “hERG current change (%, negative = inhibition) at 1uM” value came out at 7.71%.
Turning to `O=c1cc(N2CCN(c3ccccc3Cl)CC2)[nH]c(=O)n1Cc1ccc(F)cc1`, the “hERG current change (%, negative = inhibition) at 1uM” value is given as -6.82%.
On to `O=C(CCC1CCCCC1)NNC(=O)NC12CC3CC(CC(C3)C1)C2`, for which the “hERG current change (%, negative = inhibition) at 1uM” value is recorded as 14.2%.
For the compound `CC(C)NC(=O)C(c1ccc(F)cc1)N(C(=O)CCC(=O)Nc1ccccn1)c1ccccc1F` (stereo not shown), the “hERG current change (%, negative = inhibition) at 1uM” value was 10.9%.
The same measure for `Cc1ccccc1C(=O)NNC1CC(=O)N(c2ccc3c(c2)OCCO3)C1=O` (stereo not shown): 1.42%.
Regarding `COc1cc2nc(SCC(N)=O)n(CCC3=CCCCC3)c(=O)c2cc1OC`, the “hERG current change (%, negative = inhibition) at 1uM” value is recorded as -2.14%.
The same measure for `COc1ccc(-c2csc(Nc3ccccn3)n2)cc1`: 10.5%; for `O=C1CC(c2ccco2)CC2=C1C=Nc1ccccc1N2` (stereo not shown): -3.98%; for `Cc1nc2sc(C(=O)c3ccccc3)c(N)c2c2c1CCCC2`: 16%.
Consider `CC(C)C(=O)OCc1cn(-c2ccc(Cl)c(Cl)c2)nn1`, for which the “hERG current change (%, negative = inhibition) at 1uM” value is recorded as 10.3%.
The same measure for `O=C(CSc1nnc(-c2cccs2)n1-c1ccccc1)NCc1ccco1`: -65.9%; for `CC(Nc1ccc(Cl)cc1)c1cc(Cl)ccc1O` (stereo not shown): 3.82%.
As for `O=C(Nc1ccccc1)OC1C2CCC1C(N1CCCCC1)CC2` (stereo not shown), the “hERG current change (%, negative = inhibition) at 1uM” value is -12.2%.
Consider `CCNC(=S)Nc1cc(Cl)ccc1Oc1ccccc1`, for which the “hERG current change (%, negative = inhibition) at 1uM” value was 8.1%.
The same measure for `Cc1cc(C)c(-c2cc(NC(=O)CSc3n[nH]c(N)n3)n(-c3ccccc3)n2)cc1C`: 15%.
As to `COc1ccccc1/C=N/NC(=O)C(=O)Nc1ccccc1OC(F)(F)C(F)F`, the “hERG current change (%, negative = inhibition) at 1uM” value was determined as 5.98%.
Turning to `CC(=O)c1ccc(NC(=O)C2CCCC2)cc1`, the “hERG current change (%, negative = inhibition) at 1uM” value is listed as 13%.
In the case of `Cl.O=C(O)c1ccc(CNCc2ccccc2Cl)cc1` it was -13.8%; in that of `O=c1c(Cl)c2oc3ccccc3nc-2c2ccccc12`, 17.5%.
The same measure for `COc1ccccc1NC(=S)NC(=O)/C=C/c1ccco1`: 17.6%.
Consider `Cc1cc(Nc2ccc(F)cc2F)n2nc(C)nc2n1`, for which the “hERG current change (%, negative = inhibition) at 1uM” value was found to be 9.5%.
In the case of `Cc1ccc(C(=O)OC(C)C(=O)Nc2ccc3c(c2)OCO3)c(O)c1` (stereo not shown) it was 1.38%.
In the case of `C=CCn1c(SCC(=O)Nc2ccc(S(N)(=O)=O)cc2)nnc1-c1cnccn1` it was 14.3%.
Consider `CC1(C)SC2C(NC(=O)COc3ccccc3)C(=O)N2C1C(=O)O` (stereo not shown), for which the “hERG current change (%, negative = inhibition) at 1uM” value is -0.761%.
As for `COCCOC(=O)C(CC(=O)O)NCc1ccco1` (stereo not shown), the “hERG current change (%, negative = inhibition) at 1uM” value is 11%.
The same measure for `COc1ccc(NC(=O)C2CCCNC2=O)cc1` (stereo not shown): 11.7%; for `COc1cc2c(cc1NC(=O)COC(=O)c1ccccc1)oc1ccccc12`: 8.9%.
In the case of `Cn1cccc1C1Nc2ccccc2NC2=C1C(=O)CC(C)(C)C2` (stereo not shown) it was 14.7%.
As to `O=C(c1ccccc1)c1cc2ccc(O)cc2oc1=O`, the “hERG current change (%, negative = inhibition) at 1uM” value was found to be 6.56%.
In the case of `CSCc1cc(N(C)c2ccccc2)nc(-c2ccccc2)n1` it was 12.8%; in that of `Cc1cc(OCC(=O)NCc2ccncc2)c2c(C)cc(=O)oc2c1`, 13.7%; in that of `CN1CCN(NC(=O)c2ccc(Cl)cc2Cl)CC1`, 6.25%.
The same measure for `COc1ccc(CCN2CC(C(=O)O)CC2=O)cc1OC` (stereo not shown): 2.95%; for `O=C(COC(=O)CCc1c[nH]c(=O)[nH]1)Nc1ccccc1`: 12.3%; for `COc1ccccc1N1CCN(/N=C/C=C\c2ccccc2[N+](=O)[O-])CC1`: 4.77%.
Consider `COC(=O)c1c(C(=O)OC)c(-c2ccc(Cl)cc2)n2c1CS(=O)(=O)C2`, for which the “hERG current change (%, negative = inhibition) at 1uM” value was 8.05%.
The same measure for `Cc1ccc(NC(=O)CSc2nc3ccccc3c(=O)n2CCCC(=O)NCCCN2CCOCC2)cc1`: -1.63%; for `CCOC(=O)C1=C(c2ccccc2)N=c2s/c(=C\c3cccc(O)c3)c(=O)n2C1c1cccs1` (stereo not shown): 14.9%.
The same measure for `CCCCn1c(SCc2ncc(-c3ccccc3)o2)nc2cc(S(N)(=O)=O)ccc21`: 10.2%; for `CCOc1ccc(OCC)c(NC(=O)CSCC(=O)O)c1`: -1.77%; for `CCOc1ccccc1N/C=C(\C#N)c1nc2ccccc2n1C`: 2%.
The same measure for `CCOc1ccc(CCNC(=O)Cn2nc(C)c3c(C)n(-c4ccccc4)nc3c2=O)cc1`: 9.73%; for `CN1CCN(c2nnc(-c3ccc(Cl)cc3)c3ccccc23)CC1`: -3.34%.
Regarding `O=C(N/N=C/c1c[nH]c2ccccc12)c1cccs1`, the “hERG current change (%, negative = inhibition) at 1uM” value turned out to be 11.8%.
In the case of `Cc1ccc(CNC(=O)Nc2ccccc2)cc1` it was 15.4%; in that of `O=C(c1ccc(COc2ccccc2Cl)o1)N1N=C(C(F)F)CC1(O)C(F)F` (stereo not shown), 12.6%; in that of `COc1cc2c(cc1OC)C(C)N(C(=O)c1cccc([N+](=O)[O-])c1)CC2` (stereo not shown), 6.91%.
The same measure for `Cc1cc(N/C=C/C(=O)c2cccs2)ccc1F`: 25.5%; for `CCC(=O)Nc1cc(C)c(NC(=O)CCc2ccccc2)cn1`: 7.24%.
The same measure for `CN(C)S(=O)(=O)c1ccc2c(c1)C(=O)c1cc(S(=O)(=O)N(C)C)ccc1CC2`: 16.2%; for `Cn1cc(C(=O)NCC2COc3ccccc3O2)c(=O)c2cc(S(=O)(=O)N3CCCCC3)ccc21` (stereo not shown): 16.2%; for `O=C(O)c1ccc(S(=O)(=O)NC2CCCCCC2)cc1`: 13.5%.
Regarding `COc1cc(NC(=O)COc2ccccc2)ccc1NC(=O)c1ccco1`, the “hERG current change (%, negative = inhibition) at 1uM” value is recorded as -9.14%.
The same measure for `COc1ccc(Cl)cc1-c1nc(-c2ccc(NC(=O)c3ccncc3)cc2)no1`: 8.77%.
Take `Cc1cccc(N(C(=O)c2csnn2)C(C(=O)NCc2ccccc2)c2cccs2)c1` (stereo not shown): the “hERG current change (%, negative = inhibition) at 1uM” value is listed as 1.76%.
In the case of `COc1ccc(C(=O)Oc2c(CN3CCOCC3)cc(Cl)c3cccnc23)cc1OC` it was 8.7%.
Take `O=C(OC(C(=O)NC1CCCC1)c1ccc(F)cc1)c1ccno1` (stereo not shown): the “hERG current change (%, negative = inhibition) at 1uM” value was 3.34%.
The same measure for `COCCCNC(=S)N1CCN(c2nc(-c3ccccc3)cs2)CC1`: 10.9%.
Take `CC1(C)CC(=O)C(CC(=O)N2CCC(Cc3ccccc3)CC2)C(=O)C1`: the “hERG current change (%, negative = inhibition) at 1uM” value is 23.4%.
Consider `COCCCn1c2nc3ccccc3nc2c2c(=O)n(Cc3ccc(Cl)cc3)cnc21`, for which the “hERG current change (%, negative = inhibition) at 1uM” value worked out at 5.24%.
For the compound `CC(=O)c1cccc(NC(=O)NC2CCCc3ccccc32)c1` (stereo not shown), the “hERG current change (%, negative = inhibition) at 1uM” value is 8.03%.
In the case of `Cc1ccsc1CN(C)C(=O)C1CCC(=O)N(CCc2cccc(F)c2)C1` (stereo not shown), the “hERG current change (%, negative = inhibition) at 1uM” value is given as -3.49%.
In the case of `c1cc2c3c(cccc3c1)NC(c1ccc3c(c1)OCO3)N2` it was 12.7%; in that of `N#CCCn1c(SCC(=O)N2CCN(S(=O)(=O)c3ccccc3)CC2)nc2ccccc21`, 5.5%; in that of `COc1ccc(-n2c(Cc3cccn3C)nnc2SCC(N)=O)cc1`, 6.69%.
In the case of `Cc1ccc(NCc2nnc(SCC(=O)O)n2-c2ccc(C)cc2)cc1` it was 11.9%; in that of `CCc1ccc(CN2CCN(S(=O)(=O)Cc3ccccc3)CC2)cc1.O=C(O)C(=O)O`, 10.2%; in that of `CC(C)(C)C1CCCCC1NC(=O)c1ccncc1` (stereo not shown), 12.8%.
As to `CCOC(=O)N1CCN(C(=O)CSc2cc(C)nc3c(-c4ccccc4OC)c(C)nn23)CC1`, the “hERG current change (%, negative = inhibition) at 1uM” value was 12.9%.
Consider `CCN1C(=O)C(c2ccc(O)cc2)(c2ccc(O)cc2)c2ccccc21`, for which the “hERG current change (%, negative = inhibition) at 1uM” value worked out at 7.13%.
Regarding `CCC(=O)Nc1ccccc1`, the “hERG current change (%, negative = inhibition) at 1uM” value is on record as 4.04%.
As to `Cc1cccc(C(=O)N2CCCC(N3CCN(c4cccc(Cl)c4)CC3)C2)n1` (stereo not shown), the “hERG current change (%, negative = inhibition) at 1uM” value is -2.31%.
The same measure for `Cc1ccc(NC(=O)c2ccc(Cl)c(S(=O)(=O)N3CCCC3)c2)nc1`: 9.97%.
Consider `O=C(N1CCN(c2ccccc2)CC1)C(F)(F)C(F)(F)F`, for which the “hERG current change (%, negative = inhibition) at 1uM” value was 5.64%.
The same measure for `COCCNC(=O)COC(=O)c1[nH]c(C)c(C(C)=O)c1C`: 16.6%; for `CC(=O)Nc1nc(C)c(-c2csc([NH2+]c3ccccn3)n2)s1.[Br-]`: -2.43%; for `COc1cccc(-c2nc(OC(C)C)c3ccccc3n2)c1`: 7.09%.
Take `Cc1c(Br)c([N+](=O)[O-])nn1C(C)C(=O)N1CCCc2ccccc21` (stereo not shown): the “hERG current change (%, negative = inhibition) at 1uM” value is listed as 11.6%.
